In the supplement of paper PMC10126150:
Values marked as one replicate rest on one cluster of the flow cell; about a third of the high ones do not repeat.

Test system: ATP
Assay: switch fluorescence ratio, 500 uM ATP over buffer (Cy3 cluster intensity, sum of 5 cycles each) (fold (ratio)); higher = stronger signal-on switching upon ATP binding; sequences stand for … in TCGTCGGCAGCGTCAGATGTGTATAAGAGACAGTTTTTTTTTTTTTTTTTTTTTTTTT…TC
Conditions: aptamer strand: ATP DNA aptamer (quencher-CACCTGGGGGAGTATTGCGGAGGAAGG + anchor), 100 nM annealed; ATP concentration: 500 uM; one replicate
Method in brief: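 Cy3-labelled switching-strand clusters on a modified Illumina MiSeq flow-cell were annealed to 100 nM quencher-labelled ATP aptamer and imaged first in selection buffer, then after 15 min with 500 uM ATP at 22 °C. NaOH stripping and re-annealing separated each of five buffer/ATP cycles, and clusters outside 100-1000 RFU were excluded. The fluorescence ratio sums target-cycle Cy3 intensity over buffer-cycle Cy3 intensity per cluster and averages it per switch-domain sequence.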
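Also: ATP exposure 15 min at 22 °C before imaging.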

Row | Sequence | switch fluorescence ratio
1 | CACAGTGCGG | 1.03
2 | CAGTGCTATA | 1.05
3 | GATCTTCGCG | 0.983
4 | TTAAGGCATC | 1.05
5 | GATGAGTATG | 0.976
6 | TGGGTACAGG | 1.04
7 | TATCGCGAAA | 0.993
8 | CGCAGGGATA | 7.05
9 | GCTATTCTTA | 1.02
10 | AGAGGGTAAT | 1.08
11 | TAGCGAGTGT | 1.02
12 | AAATTGTTAC | 1.05
13 | GGACAGCTGG | 0.999
14 | TGGAATCATT | 1.01
15 | CAGTGCCATA | 0.975
16 | TATTGCGTG | 1.03
17 | TCTTGTAGTT | 1
18 | GCACGTCTCT | 1.12
19 | GCGGGGTCGC | 0.939
20 | ATACCTTAGG | 1.06
21 | GCTACCCTGT | 1.06
22 | TCTTGCTCTT | 1
23 | TCACGGGCAT | 1.08
24 | AAGCAGCTTG | 0.982
25 | AGAGTTAGGA | 0.99
26 | ATTTGTGGTC | 0.98

Row | Sequence | switch fluorescence ratio
27 | TTGCATCAGT | 0.997
28 | CGTCGGCACA | 1.03
29 | GGCTGACAA | 1.01
30 | GGATTCTCAG | 0.98
31 | TGAGCTGTCA | 0.957
32 | ACCTCTCAGT | 1.04
33 | AACCGAGCTC | 1.57
34 | CAAATCCTAG | 0.956
35 | GAGCAGGTAA | 1.12
36 | GAATGACAAC | 1
37 | AGCCAATTC | 1.24
38 | TATTAGTCC | 1.03
39 | CTCTAGGCTA | 1.07
40 | TTACGTCCTT | 1.03
41 | TCGAAGGAGA | 1.02
42 | GGTCTGCTCC | 1.06
43 | CCAATGAGTT | 0.986
44 | GTGTTAACGA | 1.01
45 | CGGCCGTA | 0.978
46 | GTTCATAGGG | 0.956
47 | GTTTTCTGGG | 0.969
48 | TGAGAGCAG | 1.05
49 | CTCTGAGAAG | 1.04
50 | TCGCGAAATA | 1.02
51 | TCGTAGAGCA | 1.04
52 | CAGCCTAGTA | 1.05

Row | Sequence | switch fluorescence ratio
53 | ATTTTACGGC | 1.09
54 | ATTACTAATT | 0.998
55 | TGCTATGTCA | 0.981
56 | ATAAGAATAA | 0.985
57 | GATTTAACTC | 1.01
58 | GGTTGCTTTC | 1.01
59 | TCTGTACGCA | 1.61
60 | CTCTTTATGT | 1.02
61 | TTCTGATCTC | 1.01
62 | CCTGAAGCAT | 3.03
63 | TAACGTTCCT | 2.61
64 | CTAACAGGGA | 1.01
65 | CTTGACCTAC | 1.27
66 | GGGATCTTGT | 0.978
67 | GTAAGAAGTC | 1.1
68 | TTAGCGATGT | 1.07
69 | GCGGCTTTTA | 0.999
70 | AGAGCTTGAA | 0.994
71 | AAAATCTAGG | 1.07
72 | TGGCCCCATG | 1.02
73 | GAATGCTTGG | 1.02
74 | TTGCGCCTC | 0.984
75 | ACGGCGCGGG | 1.28
76 | GATAGCGCGA | 1.06
77 | GGGCATCCGG | 1
78 | GGGGACTAGA | 0.977

Row | Sequence | switch fluorescence ratio
79 | CAAGTTGAGT | 0.994
80 | TATGTTGGT | 0.972
81 | ACTGGCTATC | 1.07
82 | TCCTCGTTAG | 1.18
83 | TAAAAAAATG | 1.03
84 | CGAACTGCTC | 1.11
85 | CCGCTCCCCG | 1.16
86 | TTTGTGGTT | 0.95
87 | ATATTCTCGG | 0.984
88 | ACTGGTACT | 1.19
89 | AACCATATAT | 1.02
90 | GCCCCATGA | 1.03
91 | AAACCCGGGT | 1.06
92 | ACTCTATTAA | 1.02
93 | CGTTACAAGT | 0.983
94 | CGTAA | 1.05
95 | TAGCAAAAAT | 1.08
96 | GAAAATCTAT | 1.06
97 | ACTTGGTGCT | 1.02
98 | CGGCAAACA | 1.18
99 | CCCTTCGGAA | 1.58
100 | TACTTACGCC | 1.27
101 | TAGGCTGGTC | 1.06
